# Laboratory results published in the supplement of paper PMC8728848.
# This is one part of the list.
# B1: Gal 4 (Mus musculus), P56470 (protein)
# chain: MAYVPAPGYQPTYNPTLPYYQPIPGGLNVGMSVYIQGVASEHMKRFFVNFVVGQDPGSDVAFHFNPRFDGWDKVVFNTLQGGKWGSEERKRSMPFKKGAAFELVFIVLAEHYKVVVNGNPFYEYGHRLPLQMVTHLQVDGDLQLQSINFIGGQPLRPQGPPMMPPYPGPGHCHQQLNSLPTMEGPPTFNPPVPYFGRLQGGLTARRTIIIKGYVPPTGKSFAINFKVGSSGDIALHINPRMGNGTVVRNSLLNGSWGSEEKKITHNPFGPGQFFDLSIRCGLDRFKVYANGQHLFDFAHRLSAFQRVDTLEIQGDVTLSYVQI
# What was measured:
# Test in all cases: glycan array binding signal (z-score within array); higher = stronger binding
# Settings in all cases: glycan notation: IUPAC condensed, linker removed
# GalNAc(a1-3)Gal = target: GalNAc(a1-3)Gal
# Procedure, shortened: (§1)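 The Consortium for Functional Glycomics database supplied 3228 glycan arrays, of which those lacking an available protein sequence were dropped. The binding signal, a within-array Z-score, was averaged across arrays of the same protein sequence and across linkers. Negative scores can be read as non-binding.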
# GalNAc(a1-3)GalNAc = target: GalNAc(a1-3)GalNAc
# Procedure, shortened: as §1
# [1] = target: GalNAc(a1-3)GalNAc(a1-3)Gal(a1-4)Gal(b1-4)GlcNAc
# Procedure, shortened: as §1
# [2] = target: GalNAc(a1-3)GalNAc(b1-3)Gal(a1-4)Gal(b1-4)Glc
# Procedure, shortened: as §1
# GalNAc(b1-3)Gal = target: GalNAc(b1-3)Gal
# Procedure, shortened: as §1
# [3] = target: GalNAc(b1-3)Gal(a1-4)Gal(b1-4)GlcNAc
# Procedure, shortened: as §1
# [4] = target: GalNAc(b1-3)Gal(a1-4)Gal(b1-4)GlcNAc(b1-3)Gal(b1-4)Glc
# Procedure, shortened: as §1
# [5] = target: GalNAc(b1-3)Gal(a1-6)Gal(b1-4)Glc
# Procedure, shortened: as §1
# GalNAc(b1-3)GalNAc = target: GalNAc(b1-3)GalNAc
# Procedure, shortened: as §1
# GalNAc(b1-3)GlcNAc = target: GalNAc(b1-3)GlcNAc
# Procedure, shortened: as §1
# GalNAc(b1-4)Gal(b1-4)Glc = target: GalNAc(b1-4)Gal(b1-4)Glc
# Procedure, shortened: as §1
# GalNAc(b1-4)GlcNAc = target: GalNAc(b1-4)GlcNAc
# Procedure, shortened: as §1
# [6] = target: GalNAc(b1-4)GlcNAc(b1-2)Man
# Procedure, shortened: as §1
# [7] = target: GalNAc(b1-4)GlcNAc(b1-2)Man(a1-3)[GalNAc(b1-4)GlcNAc(b1-2)Man(a1-6)]Man(b1-4)GlcNAc(b1-4)GlcNAc
# Procedure, shortened: as §1
# [8] = target: GalNAc(b1-4)GlcNAc(b1-3)GalNAc(b1-4)GlcNAc
# Procedure, shortened: as §1
# GalNAc(b1-4)GlcNAc6S = target: GalNAc(b1-4)GlcNAc6S
# Procedure, shortened: as §1
# GalNAc(b1-6)GalNAc = target: GalNAc(b1-6)GalNAc
# Procedure, shortened: as §1
# GalNAc3S(b1-4)GlcNAc = target: GalNAc3S(b1-4)GlcNAc
# Procedure, shortened: as §1
# GalNAc3S(b1-4)GlcNAc3S = target: GalNAc3S(b1-4)GlcNAc3S
# Procedure, shortened: as §1
# [9] = target: GalNAc3S(b1-4)[Fuc(a1-3)]GlcNAc
# Procedure, shortened: as §1
# GalNAc4S6S(b1-4)GlcNAc = target: GalNAc4S6S(b1-4)GlcNAc
# Procedure, shortened: as §1
# GalNAc6S(b1-4)GlcNAc = target: GalNAc6S(b1-4)GlcNAc
# Procedure, shortened: as §1
# Glc(a1-4)Glc = target: Glc(a1-4)Glc
# Procedure, shortened: as §1
# [10] = target: Glc(a1-4)Glc(a1-4)Glc(a1-4)Glc
# Procedure, shortened: as §1
# Glc(a1-6)Glc(a1-6)Glc = target: Glc(a1-6)Glc(a1-6)Glc
# Procedure, shortened: as §1
# [11] = target: Glc(a1-6)Glc(a1-6)Glc(a1-6)Glc
# Procedure, shortened: as §1
# Glc(b1-4)Glc = target: Glc(b1-4)Glc
# Procedure, shortened: as §1
# Glc(b1-6)Glc = target: Glc(b1-6)Glc
# Procedure, shortened: as §1
# GlcA(b1-3)Gal = target: GlcA(b1-3)Gal
# Procedure, shortened: as §1
# GlcA(b1-3)GlcNAc = target: GlcA(b1-3)GlcNAc
# Procedure, shortened: as §1
# GlcA(b1-6)Gal = target: GlcA(b1-6)Gal
# Procedure, shortened: as §1
# [12] = target: GlcA3S(b1-3)Gal(b1-4)GlcNAc(b1-2)Man
# Procedure, shortened: as §1
# [13] = target: GlcA3S(b1-3)Gal(b1-4)GlcNAc(b1-3)Gal(b1-4)Glc
# Procedure, shortened: as §1
# [14] = target: GlcNAc(a1-3)Gal(b1-4)GlcNAc
# Procedure, shortened: as §1
# [15] = target: GlcNAc(a1-4)Gal(b1-3)GlcNAc
# Procedure, shortened: as §1
# [16] = target: GlcNAc(a1-4)Gal(b1-4)GalNAc
# Procedure, shortened: as §1
# [17] = target: GlcNAc(a1-4)Gal(b1-4)GlcNAc
# Procedure, shortened: as §1
binder,measurement,setting,value
B1,glycan array binding signal (z-score),GalNAc(a1-3)Gal,-0.214
same,glycan array binding signal (z-score),GalNAc(a1-3)GalNAc,-0.241
same,glycan array binding signal (z-score),[1],0.119
same,glycan array binding signal (z-score),[2],0.156
same,glycan array binding signal (z-score),GalNAc(b1-3)Gal,0.443
same,glycan array binding signal (z-score),[3],-0.195
same,glycan array binding signal (z-score),[4],0.57
same,glycan array binding signal (z-score),[5],-0.222
same,glycan array binding signal (z-score),GalNAc(b1-3)GalNAc,-0.243
same,glycan array binding signal (z-score),GalNAc(b1-3)GlcNAc,-0.272
same,glycan array binding signal (z-score),GalNAc(b1-4)Gal(b1-4)Glc,-0.31
same,glycan array binding signal (z-score),GalNAc(b1-4)GlcNAc,-0.21
same,glycan array binding signal (z-score),[6],-0.298
same,glycan array binding signal (z-score),[7],-0.172
same,glycan array binding signal (z-score),[8],-0.278
same,glycan array binding signal (z-score),GalNAc(b1-4)GlcNAc6S,0.496
same,glycan array binding signal (z-score),GalNAc(b1-6)GalNAc,-0.226
same,glycan array binding signal (z-score),GalNAc3S(b1-4)GlcNAc,0.169
same,glycan array binding signal (z-score),GalNAc3S(b1-4)GlcNAc3S,-0.325
same,glycan array binding signal (z-score),[9],-0.304
same,glycan array binding signal (z-score),GalNAc4S6S(b1-4)GlcNAc,-0.265
same,glycan array binding signal (z-score),GalNAc6S(b1-4)GlcNAc,-0.326
same,glycan array binding signal (z-score),Glc(a1-4)Glc,-0.244
same,glycan array binding signal (z-score),[10],-0.317
same,glycan array binding signal (z-score),Glc(a1-6)Glc(a1-6)Glc,-0.251
same,glycan array binding signal (z-score),[11],-0.275
same,glycan array binding signal (z-score),Glc(b1-4)Glc,-0.232
same,glycan array binding signal (z-score),Glc(b1-6)Glc,-0.23
same,glycan array binding signal (z-score),GlcA(b1-3)Gal,-0.24
same,glycan array binding signal (z-score),GlcA(b1-3)GlcNAc,-0.039
same,glycan array binding signal (z-score),GlcA(b1-6)Gal,-0.236
same,glycan array binding signal (z-score),[12],-0.336
same,glycan array binding signal (z-score),[13],-0.228
same,glycan array binding signal (z-score),[14],-0.2
same,glycan array binding signal (z-score),[15],-0.237
same,glycan array binding signal (z-score),[16],-0.219
same,glycan array binding signal (z-score),[17],-0.233
